This is one part of the list.
What was measured:
Experiment in all cases: glycan array binding signal (z-score within array); higher = stronger binding
Settings in all cases: glycan notation: IUPAC condensed, linker removed
[1] = molecular target: Gal(b1-4)GlcNAc(b1-3)Gal(b1-4)GlcNAc(b1-2)[Gal(b1-4)GlcNAc(b1-3)Gal(b1-4)GlcNAc(b1-6)]Man(a1-6)[Gal(b1-4)GlcNAc(b1-3)Gal(b1-4)GlcNAc(b1-2)Man(a1-3)]Man(b1-4)GlcNAc(b1-4)GlcNAc
Method in brief: (§1)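 Glycan array data were curated from 3228 arrays in the Consortium for Functional Glycomics database and kept only where the protein sequence was available. Glycan names were converted to IUPAC-condensed notation, and columns mapping to the same glycan were averaged. The binding signal is a within-array Z-score, averaged across arrays of the same protein sequence at different concentrations or buffers and across linkers. Negative Z-scores can be read as non-binding.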

[2] = molecular target: Gal(b1-4)GlcNAc(b1-3)Gal(b1-4)GlcNAc(b1-2)[Gal(b1-4)GlcNAc(b1-3)Gal(b1-4)GlcNAc(b1-6)]Man(a1-6)[Gal(b1-4)GlcNAc(b1-3)Gal(b1-4)GlcNAc(b1-2)Man(a1-3)]Man(b1-4)GlcNAc(b1-4)[Fuc(a1-6)]GlcNAc
Method in brief: as §1

[3] = molecular target: Gal(b1-4)GlcNAc(b1-3)Gal(b1-4)GlcNAc(b1-3)Gal(b1-4)GlcNAc
Method in brief: as §1

[4] = molecular target: Gal(b1-4)GlcNAc(b1-3)Gal(b1-4)GlcNAc(b1-3)Gal(b1-4)GlcNAc(b1-2)Man(a1-3)[Gal(b1-4)GlcNAc(b1-3)Gal(b1-4)GlcNAc(b1-3)Gal(b1-4)GlcNAc(b1-2)Man(a1-6)]Man(b1-4)GlcNAc(b1-4)GlcNAc
Method in brief: as §1

[5] = molecular target: Gal(b1-4)GlcNAc(b1-3)Gal(b1-4)GlcNAc(b1-3)Gal(b1-4)GlcNAc(b1-2)Man(a1-3)[Gal(b1-4)GlcNAc(b1-3)Gal(b1-4)GlcNAc(b1-3)Gal(b1-4)GlcNAc(b1-2)Man(a1-6)]Man(b1-4)GlcNAc(b1-4)[Fuc(a1-6)]GlcNAc
Method in brief: as §1

[6] = molecular target: Gal(b1-4)GlcNAc(b1-3)Gal(b1-4)GlcNAc(b1-3)Gal(b1-4)GlcNAc(b1-2)[Gal(b1-4)GlcNAc(b1-3)Gal(b1-4)GlcNAc(b1-3)Gal(b1-4)GlcNAc(b1-6)]Man(a1-6)[Gal(b1-4)GlcNAc(b1-3)Gal(b1-4)GlcNAc(b1-3)Gal(b1-4)GlcNAc(b1-2)Man(a1-3)]Man(b1-4)GlcNAc(b1-4)[Fuc(a1-6)]GlcNAc
Method in brief: as §1

[7] = molecular target: Gal(b1-4)GlcNAc(b1-3)Gal(b1-4)GlcNAc(b1-3)Gal(b1-4)GlcNAc(b1-3)Gal(b1-4)GlcNAc(b1-2)Man(a1-3)[Gal(b1-4)GlcNAc(b1-3)Gal(b1-4)GlcNAc(b1-3)Gal(b1-4)GlcNAc(b1-3)Gal(b1-4)GlcNAc(b1-2)Man(a1-6)]Man(b1-4)GlcNAc(b1-4)GlcNAc
Method in brief: as §1

[8] = molecular target: Gal(b1-4)GlcNAc(b1-3)Gal(b1-4)GlcNAc(b1-3)Gal(b1-4)GlcNAc(b1-3)Gal(b1-4)GlcNAc(b1-2)Man(a1-3)[Gal(b1-4)GlcNAc(b1-3)Gal(b1-4)GlcNAc(b1-3)Gal(b1-4)GlcNAc(b1-3)Gal(b1-4)GlcNAc(b1-2)Man(a1-6)]Man(b1-4)GlcNAc(b1-4)[Fuc(a1-6)]GlcNAc
Method in brief: as §1

[9] = molecular target: Gal(b1-4)GlcNAc(b1-3)Gal(b1-4)GlcNAc(b1-3)Gal(b1-4)GlcNAc(b1-3)Gal(b1-4)GlcNAc(b1-2)[Gal(b1-4)GlcNAc(b1-3)Gal(b1-4)GlcNAc(b1-3)Gal(b1-4)GlcNAc(b1-3)Gal(b1-4)GlcNAc(b1-6)]Man(a1-6)[Gal(b1-4)GlcNAc(b1-3)Gal(b1-4)GlcNAc(b1-3)Gal(b1-4)GlcNAc(b1-3)Gal(b1-4)GlcNAc(b1-2)Man(a1-3)]Man(b1-4)GlcNAc(b1-4)[Fuc(a1-6)]GlcNAc
Method in brief: as §1

[10] = molecular target: Gal(b1-4)GlcNAc(b1-3)Gal(b1-4)GlcNAc(b1-3)Gal(b1-4)GlcNAc(b1-3)Gal(b1-4)GlcNAc(b1-3)Gal(b1-4)GlcNAc(b1-2)Man(a1-3)[Gal(b1-4)GlcNAc(b1-3)Gal(b1-4)GlcNAc(b1-3)Gal(b1-4)GlcNAc(b1-3)Gal(b1-4)GlcNAc(b1-3)Gal(b1-4)GlcNAc(b1-2)Man(a1-6)]Man(b1-4)GlcNAc(b1-4)GlcNAc
Method in brief: as §1

[11] = molecular target: Gal(b1-4)GlcNAc(b1-3)Gal(b1-4)GlcNAc(b1-3)Gal(b1-4)GlcNAc(b1-3)Gal(b1-4)GlcNAc(b1-3)Gal(b1-4)GlcNAc(b1-2)Man(a1-3)[Gal(b1-4)GlcNAc(b1-3)Gal(b1-4)GlcNAc(b1-3)Gal(b1-4)GlcNAc(b1-3)Gal(b1-4)GlcNAc(b1-3)Gal(b1-4)GlcNAc(b1-2)Man(a1-6)]Man(b1-4)GlcNAc(b1-4)[Fuc(a1-6)]GlcNAc
Method in brief: as §1

[12] = molecular target: Gal(b1-4)GlcNAc(b1-3)Gal(b1-4)GlcNAc(b1-3)Gal(b1-4)GlcNAc(b1-3)Gal(b1-4)GlcNAc(b1-3)Gal(b1-4)GlcNAc(b1-2)[Gal(b1-4)GlcNAc(b1-3)Gal(b1-4)GlcNAc(b1-3)Gal(b1-4)GlcNAc(b1-3)Gal(b1-4)GlcNAc(b1-3)Gal(b1-4)GlcNAc(b1-6)]Man(a1-6)[Gal(b1-4)GlcNAc(b1-3)Gal(b1-4)GlcNAc(b1-3)Gal(b1-4)GlcNAc(b1-3)Gal(b1-4)GlcNAc(b1-3)Gal(b1-4)GlcNAc(b1-2)Man(a1-3)]Man(b1-4)GlcNAc(b1-4)[Fuc(a1-6)]GlcNAc
Method in brief: as §1

[13] = molecular target: Gal(b1-4)GlcNAc(b1-3)Gal(b1-4)GlcNAc(b1-3)Gal(b1-4)GlcNAc(b1-3)Gal(b1-4)GlcNAc(b1-3)Gal(b1-4)GlcNAc(b1-3)Gal(b1-4)GlcNAc(b1-2)Man(a1-3)[Gal(b1-4)GlcNAc(b1-3)Gal(b1-4)GlcNAc(b1-3)Gal(b1-4)GlcNAc(b1-3)Gal(b1-4)GlcNAc(b1-3)Gal(b1-4)GlcNAc(b1-3)Gal(b1-4)GlcNAc(b1-2)Man(a1-6)]Man(b1-4)GlcNAc(b1-4)GlcNAc
Method in brief: as §1

[14] = molecular target: Gal(b1-4)GlcNAc(b1-3)Gal(b1-4)GlcNAc(b1-3)GalNAc
Method in brief: as §1

[15] = molecular target: Gal(b1-4)GlcNAc(b1-3)Gal(b1-4)GlcNAc(b1-3)[Gal(b1-4)GlcNAc(b1-3)Gal(b1-4)GlcNAc(b1-6)]GalNAc
Method in brief: as §1

[16] = molecular target: Gal(b1-4)GlcNAc(b1-3)Gal(b1-4)GlcNAc(b1-6)[Gal(b1-3)]GalNAc
Method in brief: as §1

[17] = molecular target: Gal(b1-4)GlcNAc(b1-3)Gal(b1-4)[Fuc(a1-3)]GlcNAc(b1-3)Gal(b1-4)[Fuc(a1-3)]GlcNAc
Method in brief: as §1

[18] = molecular target: Gal(b1-4)GlcNAc(b1-3)GalNAc
Method in brief: as §1

[19] = molecular target: Gal(b1-4)GlcNAc(b1-3)[Fuc(a1-3)GlcNAc(b1-6)]Gal(b1-4)Glc
Method in brief: as §1

[20] = molecular target: Gal(b1-4)GlcNAc(b1-3)[Gal(b1-4)GlcNAc(b1-6)]Gal(b1-4)GlcNAc
Method in brief: as §1

[21] = molecular target: Gal(b1-4)GlcNAc(b1-3)[GlcNAc(b1-6)]Gal(b1-4)GlcNAc
Method in brief: as §1

[22] = molecular target: Gal(b1-4)GlcNAc(b1-6)Gal(b1-4)GlcNAc
Method in brief: as §1

B1: Clone730PsrP (Streptococcus pneumoniae) (protein)
chain: MDHHHHHHHHHHASENLYFQGAMVVGSQTAAATEATAKKVEEDRKKPASDYVASVTNVNLQSYAKRRKRSVDSIEQLLASIKNAAVFSGNTIVNGAPAINASLNIAKSETKVYTGEGVDSVYRVPIYYKLKVTNDGSKLTFTYTVTYVNPKTNDLGNISSMRPGYSIYNSGTSTQTMLTLGSDLGKPSGVKNYITDKNGRQVLSYNTSTMTTQGSGYTWGNGAQMNGFFAKKGYGLTSSWTVPITGTDTSFTFTPYAARTDRIGINYFNGGGKVVESSTT
glycan array binding signal (z-score) [1]: 1.62 | glycan array binding signal (z-score) [2]: -0.24 | glycan array binding signal (z-score) [3]: -0.596 | glycan array binding signal (z-score) [4]: -0.204 | glycan array binding signal (z-score) [5]: -0.406 | glycan array binding signal (z-score) [6]: -0.199 | glycan array binding signal (z-score) [7]: -0.082 | glycan array binding signal (z-score) [8]: -0.254 | glycan array binding signal (z-score) [9]: -0.336 | glycan array binding signal (z-score) [10]: -0.234 | glycan array binding signal (z-score) [11]: -0.04 | glycan array binding signal (z-score) [12]: -0.089 | glycan array binding signal (z-score) [13]: -0.513 | glycan array binding signal (z-score) [14]: -0.022 | glycan array binding signal (z-score) [15]: 0.086 | glycan array binding signal (z-score) [16]: -0.341 | glycan array binding signal (z-score) [17]: -0.503 | glycan array binding signal (z-score) [18]: -0.48 | glycan array binding signal (z-score) [19]: -0.083 | glycan array binding signal (z-score) [20]: -0.386 | glycan array binding signal (z-score) [21]: -0.486 | glycan array binding signal (z-score) [22]: 0.605
